# Test results as given in article PMC4336329 (PLoS ONE, 2015).
# Among all 310,000 compounds or so, about 14,000 (4.5%) showed an effect of 50% or more. The effect is printed as a negative number. Some of the results follow.
# Biological target: human ether-à-go-go-related gene (hERG) potassium channel (human, UniProt Q12809)
# Assay: primary screen, population patch clamp on CHO cells stably expressing hERG
# 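Also: peak tail current of the secondary pulse compared with the same well before compound.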
# human ether-à-go-go-related gene (hERG) potassium channel, sequence (Q12809 whole entry, looked up): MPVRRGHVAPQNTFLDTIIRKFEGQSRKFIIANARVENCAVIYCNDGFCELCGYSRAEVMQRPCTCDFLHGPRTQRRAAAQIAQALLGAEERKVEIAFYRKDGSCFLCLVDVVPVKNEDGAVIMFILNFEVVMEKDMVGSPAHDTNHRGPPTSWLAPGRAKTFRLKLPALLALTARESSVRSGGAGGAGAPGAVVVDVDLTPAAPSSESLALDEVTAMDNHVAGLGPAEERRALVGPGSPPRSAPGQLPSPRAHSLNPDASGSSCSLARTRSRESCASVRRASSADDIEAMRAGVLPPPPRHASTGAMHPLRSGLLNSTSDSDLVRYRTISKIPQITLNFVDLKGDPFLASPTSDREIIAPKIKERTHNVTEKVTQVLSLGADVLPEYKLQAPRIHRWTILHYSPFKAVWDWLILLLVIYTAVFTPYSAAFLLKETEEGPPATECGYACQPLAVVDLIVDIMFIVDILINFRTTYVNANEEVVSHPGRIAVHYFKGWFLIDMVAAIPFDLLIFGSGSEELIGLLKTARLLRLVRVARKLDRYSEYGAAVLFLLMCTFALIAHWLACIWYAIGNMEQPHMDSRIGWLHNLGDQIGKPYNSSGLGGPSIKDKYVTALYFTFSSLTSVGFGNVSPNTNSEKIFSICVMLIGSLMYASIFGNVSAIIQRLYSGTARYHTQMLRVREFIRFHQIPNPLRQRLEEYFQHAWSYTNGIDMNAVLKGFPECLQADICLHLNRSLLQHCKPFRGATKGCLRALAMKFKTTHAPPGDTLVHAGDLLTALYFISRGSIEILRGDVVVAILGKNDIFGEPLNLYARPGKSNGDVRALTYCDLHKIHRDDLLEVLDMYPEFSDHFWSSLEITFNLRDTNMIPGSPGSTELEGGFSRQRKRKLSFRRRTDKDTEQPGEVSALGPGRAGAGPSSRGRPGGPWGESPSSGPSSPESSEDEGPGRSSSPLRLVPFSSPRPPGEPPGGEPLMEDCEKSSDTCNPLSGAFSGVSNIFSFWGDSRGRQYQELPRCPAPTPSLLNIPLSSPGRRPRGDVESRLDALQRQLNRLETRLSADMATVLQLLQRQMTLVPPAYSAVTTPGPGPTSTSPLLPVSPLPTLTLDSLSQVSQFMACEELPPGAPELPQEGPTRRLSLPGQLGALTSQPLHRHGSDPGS
row,Structure (SMILES),"hERG current change (%, negative = inhibition) at 10uM"
1,Cc1ccc(OCc2nnc(SCC(=O)c3cccs3)n2-c2ccccc2)cc1C,11%
2,CCOc1cc(C(=O)Nc2ccc(C)cc2O)ccc1OCC(=O)N1CCOCC1,-13.2%
3,COc1ccccc1C1CCN(c2ccc([N+](=O)[O-])c(OC)c2)CC1,-8%
4,CN1C(=O)C(/C(N)=N/NC(=O)c2ccccc2)C2CC1(C)Oc1ccccc12 (centres unmarked),17.1%
5,Cc1ccc(C)c(NS(=O)(=O)c2ccc(-c3ccc(=O)[nH]n3)o2)c1,3.23%
6,CC(=O)Nc1ccc(NC(=O)c2ccc(S(=O)(=O)N(C)c3ccccc3)cc2)cc1,15.2%
7,O=C(NC(Nc1nc2ccc([N+](=O)[O-])cc2s1)(C(F)(F)F)C(F)(F)F)c1ccccc1Cl,-23.1%
8,O=C(Cn1nc(CNc2ccc(Br)cc2)[n+]2c1CCCCC2)c1ccc([N+](=O)[O-])cc1.[Br-],-19.6%
9,COC(=O)c1c(C)[nH]c(O)c1C=Nc1ccc(C#N)cc1,-13.4%
10,COc1cc(/C=N/n2cnnc2)ccc1OCCOc1ccccc1,-3.33%
11,O=C(CCn1cnnn1)N1CCCC(Nc2ccc(F)c(F)c2)C1 (centres unmarked),17.7%
12,C=CCOC(=O)C1=C[C@@H](C2CCCCC2)C[C@@H](OCc2ccc(CO)cc2)O1,3.03%
13,O=C(CN(Cc1ccccc1)S(=O)(=O)c1ccc(Br)cc1)NCc1ccco1,-51.6%
14,Cc1cccc(-c2ncc(CN3CCCC(CO)(Cc4cccc(Cl)c4)C3)cn2)c1 (centres unmarked),-20.6%
15,COc1ccc(S(=O)(=O)N2CCCCC2)cc1NC(=O)CSc1ncccn1,-33.4%
16,CC(C)=C[C@@H]1C[C@H](C)[C@H]2CC[C@H](C)c3c(O)c(O)c(C)c1c32,11.8%
17,CC(=O)c1ccc([C@H]2C[C@@]34CN(C(=O)OC(C)(C)C)S(=O)(=O)[C@H]3C[C@H]2O4)cc1,6.69%
18,CNc1nc2c(c(=O)n(C)c(=O)n2C)n1CCCc1ccccc1,12.7%
19,O=C(Nc1ccc(N2CCOCC2)cc1)c1ccncc1,0.235%

row,Structure (SMILES),"hERG current change (%, negative = inhibition) at 10uM"
1,CCOc1ccccc1CNCCc1ccc2c(c1)OCO2.Cl,-32.8%
2,OCCC1CN(Cc2cnc(-c3ccccc3)s2)CCN1CCc1ccccc1 (centres unmarked),-71.2%
3,COC(=O)c1ccc(C2/C(=C(\O)c3ccc4c(c3)OCCO4)C(=O)C(=O)N2c2nnc(C)s2)cc1 (centres unmarked),9.19%
4,Nc1ccccc1-c1nc2ccccc2c(=O)o1,15.7%
5,Cc1ccc2[nH]c(=O)c(CN(CCCO)S(=O)(=O)c3cccc4nsnc34)cc2c1,-38.1%
6,COc1ccc(OC)c(S(=O)(=O)Nc2c(NC3CCCCC3)c3ccccc3oc2=O)c1,-54.1%
7,CSc1nc(N)cc(=O)[nH]1,16.7%
8,Cc1ccc(CN2CCN(Cc3ccccc3-c3ccco3)CC2CCO)o1 (centres unmarked),-22.3%
9,O=S(=O)(Cc1ccccc1Cl)NCCOc1ccccc1,5.09%
10,C(=N\n1cnnc1)/c1nc2ccccc2[nH]1,5.6%
11,O=[N+]([O-])c1cccc(-c2nc(NCc3ccccc3)c3ccccc3n2)c1,5.12%
12,CSc1ncccc1C(=O)OCc1ccccc1F,-4.28%
13,CC(C)C1N(C(N)=S)N=CC1(C)C (centres unmarked),10.7%
14,Cc1cccc(NC(=O)NCCN2C(=O)C3C4C=CC(C4)C3C2=O)c1 (centres unmarked),0.914%
15,CCOC(=O)C(=O)Nc1ccc(S(=O)(=O)Nc2nccs2)cc1,16.8%
16,COc1ccccc1NC(=O)c1cc(S(=O)(=O)N2CCOCC2)ccc1Cl,-13.5%
17,CC(=O)Nc1cccc(NC(=O)C2CCCN2C(=O)Nc2ccc(Cl)cc2)c1 (centres unmarked),-10.8%
18,COC(=O)c1ccc(N2CCOCC2)c(NC(=O)c2ccc3c(c2)OCO3)c1,-1.7%
19,COc1ccc(C(=O)/C(=C\N(C)C)n2nc(C)cc2C)cc1,6.61%

row,Structure (SMILES),"hERG current change (%, negative = inhibition) at 10uM"
1,CCc1cccc(C)c1NC(=O)CN1C(=O)c2ccccc2S1(=O)=O,-1.52%
2,Cc1nnc(SCC(=O)NNC(=O)C(C)C)[nH]c1=O,3.86%
3,COCCNC(=O)Cn1nc(-c2ccc(C)cc2)ccc1=O,8.83%
4,O=C(NC1CCCC1)c1cccc(S(=O)(=O)N2CCOCC2)c1,3.11%
5,Fc1ccc(/C=N/NC(=S)Nc2ccc(Cl)cc2Cl)cc1,2.42%
6,O=C(CCC(=O)Nc1cccc2ccccc12)N/N=C/c1ccco1,-1.8%
7,O=C(O)C(=O)O.O=[N+]([O-])c1ccc(CNC2CCCc3ccccc32)cc1 (centres unmarked),-51.7%
8,Oc1ccccc1/C=N/n1c(-c2cccs2)n[nH]c1=S,4.74%
9,O=S(=O)(NCc1cccnc1)c1ccccc1,10.8%
10,O=C(Nn1c(-c2ccccc2)nc2ccccc2c1=O)c1ccco1,3.87%
11,Cc1cs/c(=N\N=C\c2ccc(O)cc2)n1Cc1ccco1,-24.2%
12,CN1CC2=CC(O)CC3Oc4c(O)ccc(c4[C@]23C)C1 (some centres unmarked),23.3%
13,O=C1NC(=O)/C(=C/c2ccccn2)S1,16.1%
14,COc1cc(CCC(=O)OCC(=O)Nc2c(C)cc(C)cc2C)cc(OC)c1OC,-1.98%
15,CN(C)c1ccc(C(CNS(=O)(=O)c2ccc([N+](=O)[O-])cc2)N2CCCC2)cc1 (centres unmarked),-47.2%
16,CCNC(=O)COC(=O)/C=C/c1ccccc1[N+](=O)[O-],7%
17,CCc1ccccc1N(CC(=O)OC)S(C)(=O)=O,14.4%
18,O=C(NCC(=O)N1CCOCC1)c1ccc(Br)o1,17.4%
